The list shows a part of the results. Interaction screen of human proteins with wild-type SARS-CoV-2 proteins by split-DHFR complementation in yeast, 1 µg/mL methotrexate. Value = fitness of the pair (three or more lineages) minus that of the viral protein without a human partner, on a scale set by negative (0) and fused positive (1) controls, mean of up to three cultures; higher = more likely to interact. Active = false discovery rate below 0.05 (one-sided t-test) in at least one culture. Nearly all pairs are not hits, and differences among them are mostly noise (correlation between cultures about 0.3); most hits were seen in one culture only. Human sequences are the Swiss-Prot entries looked up by gene name; the clone may be another isoform. NSP2 values were corrected by the authors for a growth advantage. Listed are human proteins with a hit and a random twelfth of the others.
B1: CHORDC1, Q9UHD1 (protein)
chain: MALLCYNRGCGQRFDPETNSDDACTYHPGVPVFHDALKGWSCCKRRTTDFSDFLSIVGCTKGRHNSEKPPEPVKPEVKTTEKKELCELKPKFQEHIIQAPKPVEAIKRPSPDEPMTNLELKISASLKQALDKLKLSSGNEENKKEEDNDEIKIGTSCKNGGCSKTYQGLESLEEVCVYHSGVPIFHEGMKYWSCCRRKTSDFNTFLAQEGCTKGKHMWTKKDAGKKVVPCRHDWHQTGGEVTISVYAKNSLPELSRVEANSTLLNVHIVFEGEKEFDQNVKLWGVIDVKRSYVTMTATKIEITMRKAEPMQWASLELPAAKKQEKQKDATTD
B2: ORMDL3, Q8N138 (protein)
chain: MNVGTAHSEVNPNTRVMNSRGIWLSYVLAIGLLHIVLLSIPFVSVPVVWTLTNLIHNMGMYIFLHTVKGTPFETPDQGKARLLTHWEQMDYGVQFTASRKFLTITPIVLYFLTSFYTKYDQIHFVLNTVSLMSVLIPKLPQLHGVRIFGINKY

Target: SARS-CoV-2 E
Test: yeast fitness gain over the viral ORF with no human partner (scaled fitness); higher = more likely to interact
Procedure: (§1)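 Split mouse DHFR complementation in pooled diploid yeast: human ORFeome clones carry one fragment and viral ORFs the other; barcoded lineages compete in 1 µg/mL methotrexate and fitness is read by barcode sequencing in up to three cultures.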

Row | Binder | yeast fitness gain
1 | B1 | inactive: 0.00534
2 | B2 | inactive: -0.0316

Target: SARS-CoV-2 M
Test: as above
Procedure: as §1

Row | Binder | yeast fitness gain
3 | B1 | inactive: -0.0731
4 | B2 | inactive: 0.0713

Target: SARS-CoV-2 NSP1
Test: as above
Procedure: as §1

Row | Binder | yeast fitness gain
5 | B1 | inactive: 0.0903
6 | B2 | inactive: 0.0759

Target: SARS-CoV-2 NSP10
Test: as above
Procedure: as §1

Row | Binder | yeast fitness gain
7 | B1 | inactive: 0.0354
8 | B2 | inactive: 0.0304

Target: SARS-CoV-2 NSP12
Test: as above
Procedure: as §1

Row | Binder | yeast fitness gain
9 | B1 | inactive: 0.0323
10 | B2 | inactive: -0.0699

Target: SARS-CoV-2 NSP13
Test: as above
Procedure: as §1

Row | Binder | yeast fitness gain
11 | B1 | inactive: -0.0223
12 | B2 | inactive: 0.00749

Target: SARS-CoV-2 NSP15
Test: as above
Procedure: as §1

Row | Binder | yeast fitness gain
13 | B1 | inactive: -0.0229
14 | B2 | inactive: -0.0588

Target: SARS-CoV-2 NSP2
Test: as above
Procedure: as §1

Row | Binder | yeast fitness gain
15 | B1 | active: 0.338
16 | B2 | inactive: -0.109

Target: SARS-CoV-2 NSP5
Test: as above
Procedure: as §1

Row | Binder | yeast fitness gain
17 | B1 | inactive: 0.0883
18 | B2 | inactive: 0.0462

Target: SARS-CoV-2 NSP6
Test: as above
Procedure: as §1

Row | Binder | yeast fitness gain
19 | B1 | inactive: -0.104
20 | B2 | inactive: 0.0831

Target: SARS-CoV-2 NSP7
Test: as above
Procedure: as §1

Row | Binder | yeast fitness gain
21 | B1 | inactive: 0.0377
22 | B2 | inactive: 0.0215

Target: SARS-CoV-2 NSP8
Test: as above
Procedure: as §1

Row | Binder | yeast fitness gain
23 | B1 | inactive: -0.236
24 | B2 | inactive: 0.0249

Target: SARS-CoV-2 NSP9
Test: as above
Procedure: as §1

Row | Binder | yeast fitness gain
25 | B1 | inactive: -0.203
26 | B2 | inactive: 0.0625

Target: SARS-CoV-2 ORF10
Test: as above
Procedure: as §1

Row | Binder | yeast fitness gain
27 | B1 | inactive: -0.00949
28 | B2 | inactive: 0.0209

Target: SARS-CoV-2 ORF3A
Test: as above
Procedure: as §1

Row | Binder | yeast fitness gain
29 | B1 | inactive: -0.236
30 | B2 | inactive: -0.0138

Target: SARS-CoV-2 ORF3B
Test: as above
Procedure: as §1

Row | Binder | yeast fitness gain
31 | B1 | inactive: 0.0602
32 | B2 | inactive: 0.0208

Target: SARS-CoV-2 ORF6
Test: as above
Procedure: as §1

Row | Binder | yeast fitness gain
33 | B1 | inactive: 0.0358
34 | B2 | inactive: -0.0049

Target: SARS-CoV-2 ORF7B
Test: as above
Procedure: as §1

Row | Binder | yeast fitness gain
35 | B1 | inactive: -0.177
36 | B2 | active: 0.399

Target: SARS-CoV-2 ORF8
Test: as above
Procedure: as §1

Row | Binder | yeast fitness gain
37 | B1 | inactive: -0.0642
38 | B2 | inactive: 0.028

Target: SARS-CoV-2 ORF9B
Test: as above
Procedure: as §1

Row | Binder | yeast fitness gain
39 | B1 | inactive: 0.0114
40 | B2 | inactive: -0.0078

Target: SARS-CoV-2 ORF9Bwu (the 73-codon ORF)
Test: as above
Procedure: as §1

Row | Binder | yeast fitness gain
41 | B1 | inactive: -0.0817
42 | B2 | inactive: 0.0981

Target: SARS-CoV-2 S
Test: as above
Procedure: as §1

Row | Binder | yeast fitness gain
43 | B1 | inactive: 0.091
44 | B2 | inactive: -0.00362

Target: SARS-CoV-2 N
Test: as above
Procedure: as §1

Row | Binder | yeast fitness gain
45 | B2 | inactive: -0.0633

Target: SARS-CoV-2 NSP14
Test: as above
Procedure: as §1

Row | Binder | yeast fitness gain
46 | B2 | inactive: 0.0879

Target: SARS-CoV-2 NSP16
Test: as above
Procedure: as §1

Row | Binder | yeast fitness gain
47 | B2 | inactive: 0.0121

Target: SARS-CoV-2 NSP4
Test: as above
Procedure: as §1

Row | Binder | yeast fitness gain
48 | B2 | inactive: 0.3

Target: SARS-CoV-2 ORF7A
Test: as above
Procedure: as §1

Row | Binder | yeast fitness gain
49 | B2 | inactive: 0.234

Source: the supplement of paper PMC11741623
